According to the antibiotic and cytotoxicity screens of Wong et al. (2023):
The other results are listed elsewhere or left out.

system: S. aureus RN4220; test: growth inhibition call (relative growth <= 0.2); details: 50 µM

Growth inhibition call, inactive:
O=C1NC(=O)[C@@]2(CCOc3ccc(F)cc32)N1
C[C@@H]1CN([C@H](C)CO)C(=O)c2cc(NS(=O)(=O)c3cn(C)cn3)ccc2O[C@H]1CN(C)C(=O)Nc1ccc(F)cc1
C[C@@H]1CCCCO[C@@H](CN(C)Cc2ccc3c(c2)OCO3)[C@@H](C)CN([C@H](C)CO)C(=O)c2cc(NC(=O)C3CCCCC3)ccc2O1
C[C@@H]1CN([C@@H](C)CO)C(=O)c2cc(NS(C)(=O)=O)ccc2O[C@@H]1CN(C)Cc1ccc(C(F)(F)F)cc1
COc1ccc(S(=O)(=O)N(C)C[C@H]2Oc3ccc(NS(C)(=O)=O)cc3CC(=O)N([C@@H](C)CO)C[C@@H]2C)cc1
C[C@H]1CCCCO[C@H](CN(C)S(=O)(=O)c2ccc(F)cc2)[C@@H](C)CN([C@@H](C)CO)C(=O)c2cc(NC(=O)NC3CCCCC3)ccc2O1
Cc1ccc(S(=O)(=O)N(C)C[C@@H]2Oc3ccc(NS(=O)(=O)c4ccc(F)cc4)cc3CC(=O)N([C@@H](C)CO)C[C@@H]2C)cc1
C[C@@H]1CN([C@H](C)CO)C(=O)c2cccc(NC(=O)Nc3ccc(C(F)(F)F)cc3)c2O[C@H]1CN(C)C(=O)Nc1ccc(C(F)(F)F)cc1
CCS(=O)(=O)NCC[C@@H]1CC[C@@H](NC(=O)Cc2ccccn2)[C@H](CO)O1
O=C(O)CN1Cc2ccccc2C1=O
C[C@@H]1C(=O)O[C@H]2[C@H](O)[C@@]34[C@H]5C[C@@H](C(C)(C)C)[C@]36[C@@H](OC(=O)[C@@H]6O)O[C@@]4(C(=O)O5)[C@@]12O
C[C@H]1CN([C@@H](C)CO)C(=O)Cc2cc(NC(=O)Cn3cnnn3)ccc2O[C@H]1CN(C)S(=O)(=O)c1cn(C)cn1
C[C@@H]1CN([C@@H](C)CO)S(=O)(=O)c2ccc(C#CCN(C)C)cc2O[C@@H]1CN(C)C(=O)CN(C)C
C[C@@H]1CN([C@@H](C)CO)C(=O)c2cc(NS(C)(=O)=O)ccc2O[C@H]1CN(C)Cc1ccc2c(c1)OCO2
Cc1ccc(S(=O)(=O)Nc2cccc3c2O[C@H](CN(C)Cc2ccc(Cl)c(Cl)c2)[C@@H](C)CN([C@H](C)CO)C3=O)cc1
Cc1noc(C)c1NC(=O)Nc1ccc2c(c1)CC(=O)N([C@H](C)CO)C[C@H](C)[C@@H](CN(C)S(=O)(=O)c1ccccc1)O2
COCC(=O)Nc1ccc2c(c1)C(=O)N(C)C[C@@H](OC)[C@H](C)CN(C(=O)c1ccccc1F)[C@H](C)CO2
C[N+](C)(C)CCCCNC(=O)[C@@H]1C[C@@H]2C(=O)NCC(=O)N2[C@@H]1c1ccc(O)cc1
C[C@@H]1CN([C@H](C)CO)C(=O)c2cccc(NC(=O)CCCCCC(=O)Nc3ccccc3N)c2O[C@H]1CN(C)C(=O)Nc1ccccc1
C[C@H]1CN([C@@H](C)CO)C(=O)c2cc(C#CC3(O)CCCC3)cnc2O[C@@H]1CN(C)C(=O)C1CCOCC1
O=c1ccc2cc3ccoc3cc2o1
Cl.c1ccc2c(CC3=NCCN3)cccc2c1
Cc1noc(C)c1NC(=O)N(C)C[C@@H]1OCCCC[C@@H](C)Oc2ccc(NS(=O)(=O)c3ccccc3)cc2C(=O)N([C@H](C)CO)C[C@H]1C
NC[C@](O)(c1cccs1)C1CC1
C[C@@H]1CCCCO[C@H](CN(C)Cc2ccccc2)[C@H](C)CN([C@H](C)CO)C(=O)c2cc(NC(=O)Cc3ccccc3)ccc2O1
C[C@H](CO)N1C[C@H](C)[C@@H](CN(C)S(=O)(=O)c2cn(C)cn2)Oc2ccc(NS(C)(=O)=O)cc2CC1=O
C[C@@H]1CCCCO[C@@H](CN(C)C(=O)c2ccccc2)[C@@H](C)CN([C@H](C)CO)C(=O)c2cc(NS(=O)(=O)c3ccc(F)cc3)ccc2O1
CN(C)CC(=O)N[C@@H]1CC[C@@H](CCNC(=O)C2CC2)O[C@H]1CO
C[C@@H]1CN([C@@H](C)CO)C(=O)c2cc(NC(=O)Nc3ccc4c(c3)OCO4)ccc2O[C@H]1CN(C)Cc1ccc(-c2ccccc2)cc1
c1ccc(-n2ncc3c2ncn2nnnc32)cc1
C=CCOC(=O)N(C)C[C@@H]1OCCCC[C@H](C)Oc2ccc(NC(=O)Nc3ccccc3)cc2C(=O)N([C@@H](C)CO)C[C@H]1C
